# The full ranking holds about 4,500 sequences; the median of “median log2 fold change of GCK-ALFA target abundance (FLAG IP / Myc IP barcode read proportion)” is about 0.078, and the lowest 2% start at about -0.6. The list shows a part of the results.
# B1: GBRAP_52_6003 (protein)
# chain: MEEKAKELAEKILAAALAGDWDKARALLKEVAATKDLEFIRKVAEELAKLAKTKPLEEDERLVRLADLFEDVLLEAGVPEEEALLAEGIILAGIAEGHAA
# B2: GBRAP_117_2597 (protein)
# chain: SATEEEAKKLVEEMVKLIKEAIEKQKKLSPEEAEKLRKETLEKLTKMVAELLKLVDFDTLEELFAEALKPLTPEEQVEAYILFYEALAEAEERRKKEEEE
# B3: GBRAP_160_4515 (protein)
# chain: SASLEAVLKDIDEAREEIKEVIEEGDVEAAIITADVEFGEIIMDLAEDENASDEAEDAAAEIRDKLVEELKEAKDASVEERKEIVDEKAEELKEKLKELF
# B4: GBRAP_125_2966 (protein)
# chain: ATEEELADLRRLALALGLSEEEAEEAAELARASSIRGTLYAIFAGLGYDELAEAVAEITEEEAREVLRATAAFIEAHPDATPEEVVAHALELAKAALAKR
# B5: GBRAP_128_3155 (protein)
# chain: STEEKVEETKKLLEKIKNSSLEEVPALAEKIVELIKNSTDEEAEAIADVIEEKIGELSEEKLDILADVFRKKRPELSPEKANIAAGMEVDAYNAKLEKDE
# B6: GBRAP_184_5202 (protein)
# chain: AIVERTIEFENEEELKEKLKELLEELKGFKGTVYIHVEAPEITEEMAKLLIEFVKEIKENGYATEIIVDIEGEVSEEVRDLLLDEFAKIGAKVVIALSEE
# B7: GBRAP_52_6288 (protein)
# chain: SEERVRAVADEIVELIRAGDLEGALALARQFVEEASLEEVLRLGELLIERSAELPKEKLDLAWEVVEELARGIEERFGAEEEADILEARAAAAIYAALQA
# B8: GBRAP_184_5317 (protein)
# chain: EVIHKVIEVETEEEAKKKLEEVREEVKKTGKKYLVTIELKNPTKELVKTVAEEIKKMKEEGLPVEFIVEVPEDVSEELADFAIEEFDKAGAKVVLAIPDE
# B9: GBRAP_52_5851 (protein)
# chain: MEEEAKKIAKELVKLKLAGKEEELEKKIKEIVETKSEEEILKILEELAKLAKTATPEEVEAIVETAIKLSDIAEEAGFDEWELSAAEADVGKAAYKNLQK
# B10: GBRAP_52_5976 (protein)
# chain: MEEEARKIAEEIVKLLLEGKEEEAEKLIKEVVENKSEEFIKMVLEELARMAKTADAETIDAIVEGALMLGDEALEAGFDEAEVDDGVARVVAAAVAALAA
# B11: GBRAP_128_3196 (protein)
# chain: VDPAAVAELRALAERVIATKSDEAIAAFAAAIAAALRAGRIDLDTLEEIVAALGEGLDADTLARVERALRAALADVGPEALATALGTLGEAIWEKLEEEE
# B12: GBRAP_11_2666 (protein)
# chain: KKEAYKELAELAKKLAEAVKKLIEEGIDNEELLKEAEELLKKLAKLAKEKADEATQKEVEDLKEIWEEMLKDKENRLEYAKQLLAAARVLEGNFLLEADE
# B13: GBRAP_83_6989 (protein)
# chain: AEKIVVAANKDNIEEAVDIVIDLTKEEGYDVELEIIVDKESLEKVKEAVKRLAEAGVETKITILAEGFTEEEAEELKEELEKIAKEAGVNIEIEVHIIEP
# B14: GBRAP_74_6542 (protein)
# chain: MHPKIKAALEAAEAGDVEKLVEILAEMTDEEIAEMTSEQLLKIFKTIEENFDTLTDEQKEKVADFVARVADVHDFRDLSPEALKAFQAVLAKLYQWELEK
# B15: GBRAP_53_6398 (protein)
# chain: AAAAIAAGLAELEALIAEVEADPTLDAADVAARAGALLKALAAAGAPEAELTALARRLAAAVAARGLGVEVSTALAATAAAAGREAVAAVFTEAAVEDLE
# B16: GBRAP_160_4203 (protein)
# chain: EEKVEEIIKELREEAERVIEELDEVSVEEAANFAAVEFGEVLMEAVEMGIENEKILEIIDKAADEVVKYLKENKDAPVEELKKKIREIVEEAIKKIKEEA
# B17: GBRAP_83_6993 (protein)
# chain: KEKIVVAAPGDRLLEAAEAAIDLSKEYGYEVSLEFLATPEDRERLLEAVRKLAEAGLETEVRVLLEGVTEEEAEELREELERIAKEHGVNIKVEVEVVEL
# B18: GBRAP_35_5623 (protein)
# chain: NTDKEIAEAVVAVLEDTLLAKDTVPADTFIDTAIKVARLGIEVAKELKEYKENAKKILEAVEKLLKAAKERAKETGAPEEKLKEIEKLLKEVEELKKKLE
# B19: GBRAP_52_6370 (protein)
# chain: MLEEALEKLREALEAVLAGKEEEAREILREIVENYSEETILEAFKRLAEELKEGTLEEAEAFLELALMLSDIMDEEGRSEAVGDEIEAIAARTYMEILER
# B20: GBRAP_184_5039 (protein)
# chain: KIKERVIEAENKEELKKKLEELKEEMKNFKGELILHVKSPKFTKEMVELLMKTLKEMLEEGYISSATVGLDGDMTEEVVDLAVKLADEAGIKVVLALDEE
# B21: GBRAP_14_3794 (protein)
# chain: MEEIEKILRETIEEIMELISDLPEEVLRELRERLEEIAEETLRRIKETGDIDEAMEEGRERAVEATREITADLPEERRAEAVAIVRVELDNAEEEIEEKY
# B22: GBRAP_43_5747 (protein)
# chain: DEELVLGAVEFTRLAAEEDEISDETVLKAFKAALDLMADTGVQLKEELIEAARALAKRLSDEQVEELIKYVKERAKANPKVKETFEAVIKVLEEELEKRK
# B23: GBRAP_11_2885 (protein)
# chain: KKEKLLELAKIAEEIVKAIEKLLKEGTDDEELLKKIKELLEELRKLTKEYADKGSQKLTEIAVELFEKALKDPENREEYLKELKAAVSVLEGDYLLEAEE
# B24: GBRAP_160_4529 (protein)
# chain: DEFLKKAEKLIEDAAEEAIKLIKGESTEERITIISMEFGSVAMEFAEDERASDEMVDVVLEEADKVIDTLKKNPNLSEEEIKALIEEARDKIIEKLRELY
# B25: GBRAP_125_2963 (protein)
# chain: SEEEDLKALATLAKALGFDEDDVAEAVELARKFGIKNTVIALFLAEGYEEVAELVEKLTEEEVREVLKELAKEIEANPDLTPEEVVELAKKLLEKKIAKK
# B26: GBRAP_83_6927 (protein)
# chain: KEKIVVAANDDNIDEAFEAAVDLQKEEGYEVDVEVMITPEGIEKLKKSFEKMAKAGWNGELDILLFGATEEEAKKLKEELEKIAKEYGVNVKINVEVVEP
# B27: GBRAP_166_4976 (protein)
# chain: SEEEIVKEVKAYIDELAEKMKTADHEEKLELLAEAAEKIREAREAGISPENLRELITYLIEKALAVGLTLSEVEGALTIIAELDEEEIDLLDEAIAEVKA
# B28: GBRAP_160_4645 (protein)
# chain: SESLEEMKEIIKEYSEIVLEEIDEGNMENALAAMRMMVGDLVLEADEDPRFSEEDVDKIDEKGDEFVEELEKNKNESKEKLKAIVKKAEEELKKLLEEAY
# B29: GBRAP_74_6506 (protein)
# chain: MEELVAELDAAIAAGDFVRAAEIAKEILAKADAETAVAAATRLLTAAVANLDKLTPEELDALVDLIVELYERIPDEKITDELAANAAKVVAAAVAAEKAR
# Molecular target: GABARAP, O95166
# Assay: median log2 fold change of GCK-ALFA target abundance (FLAG IP / Myc IP barcode read proportion) (log2 ratio); each designed protein is fused to an ALFA-tag nanobody in HEK293 cells to bring the named protein to FLAG-tagged glucokinase (GCK); Myc marks an untargeted standard; higher = target protein stabilised (more abundant)
# Conditions: target protein: 3xFLAG-MCP-GCK-ALFA reporter; HEK293 landing pad (RPLP)
# In short: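 Sequencing of reverse-transcribed, amplified circular RNA barcodes from anti-FLAG and anti-Myc immunoprecipitates provided the readout for an ALFA-nanobody-fused binder library recombined into HEK293 landing-pad cells. Those cells were induced with 2 μg mL^−1 doxycycline, transfected with a plasmid expressing a FLAG-tagged target and a Myc-tagged standard, and lysed after 48 h. Target abundance is the per-binder median log2 ratio of FLAG to Myc barcode read proportions. Only barcodes at a proportion of ≥10^−7 in both replicates and binders with ≥3 barcodes per replicate were kept, with a 10^−6 pseudocount added before the two replicates were pooled.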
# Sequence of GABARAP, O95166 (O95166 whole entry, the tested form may be a part): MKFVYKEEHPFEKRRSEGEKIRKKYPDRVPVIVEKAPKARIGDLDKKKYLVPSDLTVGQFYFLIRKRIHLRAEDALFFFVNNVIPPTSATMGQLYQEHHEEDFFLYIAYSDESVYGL
row,Binder,median log2 fold change
1,B1,0.176
2,B2,0.0608
3,B3,0.171
4,B4,-0.481
5,B5,0.217
6,B6,-0.159
7,B7,0.0151
8,B8,0.132
9,B9,-0.231
10,B10,-0.535
11,B11,0.111
12,B12,0.297
13,B13,-0.0134
14,B14,-0.0821
15,B15,0.254
16,B16,0.00649
17,B17,0.147
18,B18,-0.669
19,B19,-0.203
20,B20,0.0381
21,B21,0.104
22,B22,0.0669
23,B23,-0.067
24,B24,0.0322
25,B25,-0.725
26,B26,-0.201
27,B27,-0.00235
28,B28,-0.245
29,B29,-0.0484

# From the supplement of paper PMC12632987
